# Measurements from PubChem BioAssay AID624417 (National Center for Advancing Translational Sciences (NCATS), 2012).
# In all, about 410,000 compounds went through this assay and about 6,400 (1.6%) were called active. Inconclusive results, whose numbers are uncertain, are shown with a selection of clear calls. Calls come from the whole dose curve; as a rule, active = well fitted inhibition curve with a large enough effect; inconclusive = small, poorly fitted or top-dose-only effect; inactive = no such curve, though single readings can be large or run the other way. No potency is given beside an inconclusive call; the fits are too rough.
# Molecular target: Glucagon-like peptide 1 receptor (Homo sapiens) (UniProt P43220)
# UniProt P43220, sequence (P43220 whole entry, looked up): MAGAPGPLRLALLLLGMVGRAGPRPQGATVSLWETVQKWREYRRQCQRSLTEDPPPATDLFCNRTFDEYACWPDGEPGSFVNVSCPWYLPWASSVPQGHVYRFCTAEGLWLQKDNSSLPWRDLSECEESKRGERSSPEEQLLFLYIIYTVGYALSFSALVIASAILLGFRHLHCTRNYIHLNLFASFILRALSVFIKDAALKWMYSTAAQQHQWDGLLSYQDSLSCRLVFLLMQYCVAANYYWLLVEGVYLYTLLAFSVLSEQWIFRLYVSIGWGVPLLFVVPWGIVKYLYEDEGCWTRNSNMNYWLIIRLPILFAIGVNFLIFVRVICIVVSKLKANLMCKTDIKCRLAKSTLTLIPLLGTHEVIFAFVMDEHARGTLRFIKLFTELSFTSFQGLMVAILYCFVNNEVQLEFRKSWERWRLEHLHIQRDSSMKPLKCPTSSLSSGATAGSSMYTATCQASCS
# Assay: qHTS of GLP-1 Receptor Inverse Agonists (Inhibition Mode); note: nearly all actives have a fitted effect of over 55% in size
# Details: HEK293 GLP-1R CRE-luciferase, luminescence, 24 h, GLP-1R form is constitutively active; activity change, negative = inhibition: at 38.3 µM (top of the series) unless noted
# Procedure, shortened: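 Inverse agonism was detected as reduced cAMP-driven luciferase luminescence after 24 h compound treatment. The cells were HEK293 clones expressing constitutively active human GLP-1R with the reporter. Reporter-only and GPR119 cell lines served as counterscreen controls.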
# % is set by controls: 0 for no effect and ±100 for the full control effect; potency is the fitted concentration of half-maximal effect; tags give direction and shape of the fitted curve.
Structure (SMILES),Potency,"activity change, negative = inhibition"
COC(=O)N1CCCCC1c1cc(C(=O)NCc2cccnc2)no1 (stereo unspecified),inactive,
COc1ccc(C)cc1NC(=O)N1CCCc2ccccc21,"inconclusive [inhibitor, single point]",
COc1cccc(-c2nc(CS(=O)CC(=O)N3CCN(c4cccc(C(F)(F)F)c4)CC3)c(C)o2)c1 (stereo unspecified),"inconclusive [inhibitor, single point]",
CCOC(=O)C1(Cc2ccccc2)CCN(Cc2cccc3c2OCO3)CC1,"inconclusive [inhibitor, single point]",
COc1cccc2c1Oc1cc([N+](=O)[O-])cc(N(C)C(C)=O)c1C=C2,inactive,
N/C(=N\OC(=O)c1ccc(Cl)c([N+](=O)[O-])c1)c1ccccc1,inactive,
Cc1cccc(-c2noc(CN(C(C)C)S(=O)(=O)c3ccc(F)cc3)n2)c1,"inconclusive [inhibitor, partial curve, poor fit]",
O=C(NC1CC1)c1ccc(CSCc2ccc(Cl)cc2)o1,"inconclusive [inhibitor, single point]",
NS(=O)(=O)c1cccc(NC(=O)CSc2nnc(C3CC3)n2Cc2ccccc2)c1,"inconclusive [inhibitor, single point]",
N#CC1=C(N)C(C#N)(C#N)[C@H](c2ccoc2)[C@H]2CN(Cc3ccccc3)CC=C12,"inconclusive [inhibitor, partial curve, poor fit]",
CSc1cccc(NC(=O)CN2C(=O)c3ccccc3S2(=O)=O)c1,"inconclusive [inhibitor, single point]",
O=C(Nc1ccc2c(c1)N(C1CCCC1)C(=O)c1ccccc1S2)c1ccccc1,"inconclusive [inhibitor, full curve, poor fit]",
COc1ccc(F)cc1C(=O)C1CCCN(Cc2ccc(Oc3ncccn3)cc2)C1 (stereo unspecified),"inconclusive [inhibitor, single point]",
Cc1ccc(NC(=S)NCC23C=CC(O2)C2C(=O)N(c4ccc(C)cc4)C(=O)C23)cc1 (stereo unspecified),"inconclusive [inhibitor, single point]",
COc1ccc(NC(=O)CCCS(=O)(=O)c2nc(-c3ccc(OC)c(OC)c3)cc(C(F)(F)F)n2)cc1OC,"inconclusive [inhibitor, single point]",
O=C1N(Cc2ccccc2)CC2(Br)COCOC12O (stereo unspecified),inactive,
O=C(OC(C(=O)Nc1ccc([N+](=O)[O-])cc1Br)c1ccccc1)c1ccccc1 (stereo unspecified),"inconclusive [inhibitor, partial curve, poor fit]",
COc1ccc(CCN(Cc2cc3cccc(C)c3[nH]c2=O)C(=O)NC2CCCCC2)cc1OC,"inconclusive [inhibitor, partial curve, poor fit]",
CCc1ccc(CNC(=O)CSCc2cnn(-c3ccccc3)c2-n2cccc2)cc1,"inconclusive [inhibitor, partial curve, poor fit]",
Cc1ccc(Cn2c(=O)c3ccccc3n3c(-c4ccccc4)nnc23)cc1,inactive,
COc1ccc(OC)c(S(=O)(=O)Nc2ccc3c(c2)OCCO3)c1,"inconclusive [inhibitor, partial curve, poor fit]",

Structure (SMILES),Potency,"activity change, negative = inhibition"
C=CCn1c(SCC(=O)NCc2ccc3c(c2)OCO3)nc2scc(-c3ccc(F)cc3)c2c1=O,"inconclusive [inhibitor, full curve, poor fit]",
COc1ccc(C2CC(=O)N3CN(C4CCCCC4)CSC3=C2C#N)cc1 (stereo unspecified),inactive,
Cc1cc(NC(=O)c2ccccc2Cl)n(C(C)(C)C)n1,inactive,
COC(=O)CCSCC(=O)Nc1ccc(C)c(S(=O)(=O)N2CCCCC2)c1,"inconclusive [inhibitor, single point]",
O=S(=O)(N/N=C1/CC(c2ccccc2)Oc2ccccc21)c1ccccc1 (stereo unspecified),"inconclusive [inhibitor, partial curve, poor fit]",
COc1ccc(-n2c(=O)c3c4c(sc3n(Cc3cc(=O)n5c(C)cccc5n3)c2=O)CCC4)c(OC)c1,inactive,
Cc1ccc(NC(=O)c2ccco2)c(OCc2cc(=O)n3cc(C)sc3n2)c1,inactive,
Cc1cccc(NC(=S)N2CCC(c3nc4ccccc4o3)CC2)c1C,"inconclusive [inhibitor, partial curve]",
Cc1ccnc(NC(=O)c2ccc(OCc3c(C)noc3C)cc2)c1,inactive,
COc1ccc(/C=C/C2=NN(Cc3ccccc3)C(=O)CC2)cc1,"inconclusive [inhibitor, single point]",
O=S(=O)(c1cccs1)N1CCN(c2ccccc2F)CC1,"inconclusive [inhibitor, single point]",
CC1CN(C(=O)c2ccc(NS(=O)(=O)c3ccc(C(C)(C)C)cc3)cc2)CC(C)O1 (stereo unspecified),"inconclusive [inhibitor, single point]",
COC(=O)c1cc(S(=O)(=O)NCCc2ccc(SC)cc2)c[nH]1,"inconclusive [inhibitor, partial curve, poor fit]",
CCC1CN(C(=O)NCc2ccc(F)cc2)c2ccccc2O1 (stereo unspecified),,inconclusive: -61.2% [inhibitor]
Cc1ccc(C(=O)NC(=C(Cl)Cl)S(=O)(=O)c2ccc(Cl)cc2)cc1,"inconclusive [inhibitor, partial curve, poor fit]",
Cc1ccc(-c2cc(C(=O)Nc3ccccn3)c3ccccc3n2)o1,inactive,
Cc1ccc2c(c1)c1c(n2CC(O)CNC2CCCCC2)CCCC1 (stereo unspecified),"inconclusive [inhibitor, partial curve, poor fit]",
c1ccc(C2c3[nH]c4ccccc4c3CCN2Cc2cccn2-c2ccccn2)nc1 (stereo unspecified),"inconclusive [inhibitor, single point]",
COC(=O)c1cnn(-c2ccc(F)cc2F)c1/C=N/NC(N)=S,inactive,
CCOc1ccc(NC2=C(Cl)C(=O)N(Cc3ccccc3)C2=O)cc1,"inconclusive [inhibitor, single point]",
